Experimental data: paper PMC4336329 (PLoS ONE, 2015)
The whole screen tested about 310,000 compounds, of which about 14,000 (4.5%) showed an effect of 50% or more. Effects have a minus sign here. This is one part of the list.

target: human ether-à-go-go-related gene (hERG) potassium channel (human, UniProt Q12809); assay: primary screen, population patch clamp on CHO cells stably expressing hERG
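Further: peak tail current of the secondary pulse compared with the same well before compound.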

Sequence of human ether-à-go-go-related gene (hERG) potassium channel (Q12809 whole entry, looked up): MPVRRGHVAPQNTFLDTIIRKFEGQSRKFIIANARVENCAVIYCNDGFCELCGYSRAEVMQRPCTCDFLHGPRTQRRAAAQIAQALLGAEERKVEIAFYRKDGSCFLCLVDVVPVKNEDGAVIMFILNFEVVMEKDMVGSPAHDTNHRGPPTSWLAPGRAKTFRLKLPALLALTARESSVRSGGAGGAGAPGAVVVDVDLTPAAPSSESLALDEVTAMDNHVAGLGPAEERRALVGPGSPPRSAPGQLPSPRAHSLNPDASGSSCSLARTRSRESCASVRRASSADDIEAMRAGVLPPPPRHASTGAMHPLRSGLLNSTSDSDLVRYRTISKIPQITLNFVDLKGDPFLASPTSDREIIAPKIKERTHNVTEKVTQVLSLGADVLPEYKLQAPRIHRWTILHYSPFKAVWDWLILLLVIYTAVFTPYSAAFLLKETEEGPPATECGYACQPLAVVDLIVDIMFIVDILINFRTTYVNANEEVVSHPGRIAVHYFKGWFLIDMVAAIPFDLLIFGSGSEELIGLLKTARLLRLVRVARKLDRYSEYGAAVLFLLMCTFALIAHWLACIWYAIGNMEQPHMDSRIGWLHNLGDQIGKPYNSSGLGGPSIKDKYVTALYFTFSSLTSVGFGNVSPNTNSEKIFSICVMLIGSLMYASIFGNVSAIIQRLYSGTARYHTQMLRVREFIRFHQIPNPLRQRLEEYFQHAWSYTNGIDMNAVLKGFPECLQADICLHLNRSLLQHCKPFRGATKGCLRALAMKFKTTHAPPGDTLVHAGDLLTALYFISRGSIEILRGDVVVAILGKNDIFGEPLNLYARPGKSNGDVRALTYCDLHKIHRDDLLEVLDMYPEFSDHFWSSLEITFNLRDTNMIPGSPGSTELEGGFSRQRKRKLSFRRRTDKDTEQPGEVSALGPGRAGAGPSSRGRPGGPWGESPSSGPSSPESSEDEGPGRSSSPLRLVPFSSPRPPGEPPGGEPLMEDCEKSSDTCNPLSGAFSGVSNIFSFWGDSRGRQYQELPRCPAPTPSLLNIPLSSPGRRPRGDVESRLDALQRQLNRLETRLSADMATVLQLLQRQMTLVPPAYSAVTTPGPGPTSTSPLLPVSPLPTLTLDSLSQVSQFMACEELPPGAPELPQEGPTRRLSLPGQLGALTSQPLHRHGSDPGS

Structure (SMILES)	hERG current change (%, negative = inhibition) at 10uM
CC12CC3CC(C)(C1)CC(C(=O)NC(=S)N1CCOCC1)(C3)C2	-4.47%
O=C(CN1CCSCC1)N/N=C/c1ccc(F)cc1	-16.3%
Fc1ccc(/C=N/NC(=S)Nc2cccnc2)cc1F	7.07%
CCCCOc1ccc(C(=O)Nc2ccc(N3CCN(C(=O)C(C)C)CC3)cc2)cc1	6.91%
COc1ccc(-n2c(SCC(=O)NCCC(C)C)nc3ccsc3c2=O)cc1	-11.3%
O=C1CSC(c2ccccn2)N1c1ccc2ccccc2c1 (stereo not shown)	4.18%
N#Cc1ccc(Nc2ccccc2)c(N)c1	-12.6%
O=C(O)C[C@H]1c2ccc(C(F)(F)F)cc2S(=O)(=O)N1Cc1ccccc1	23.4%
CC1=C(C(=O)NCCc2ccc(C)cc2)C2(CCC(C)CC2)OC1=O (stereo not shown)	8.64%
Cn1nc([N+](=O)[O-])nc1Oc1ccc(C(C)(C)C)cc1	2.92%
C/C(=N\NC(=O)c1ccncc1)c1cc2ccccc2oc1=O	-1.92%
CCOCCCNC(=O)CN1C2CCC1CC(O)(c1ccc(OC)cc1)C2 (stereo not shown)	-36.4%
COc1ccc(/C=C/C(=O)c2ccc3c4c(cccc24)CC3)cc1OC	20.8%
O=C(Cn1ncn2nc(-c3ccccc3)cc2c1=O)NCc1ccccn1	17.2%
O=C1CC(Cc2ccccc2)C(=O)N1Cc1ccco1 (stereo not shown)	2.06%
CC(=O)N1N=C(c2ccc3nccnc3c2)CC1c1ccccc1 (stereo not shown)	-34.9%
CCSc1nc2c(c(=O)[nH]c(=O)n2C)n1C	19.1%
Cc1cccc(-n2ncc3c(NNC(=O)c4ccco4)ncnc32)c1	16.7%
CC(=O)c1cccc(NC(=O)c2ccccc2-c2ccccc2C(=O)O)c1	16.5%
O=C(NC(=S)N(Cc1ccccc1)c1ccccn1)C1CCCCC1	-1.24%

Structure (SMILES)	hERG current change (%, negative = inhibition) at 10uM
O=C(Nc1cccnc1)c1cccc(S(=O)(=O)N2CCOCC2)c1	4.06%
O=C(COC(=O)CCC(=O)c1ccc(Cl)cc1)NCC1CCCO1 (stereo not shown)	7.58%
Cn1c(C23CC4CC(CC(C4)C2)C3)n[nH]c1=S	15.2%
O=c1c(C(c2ccccc2)c2c(O)sc3ccccc3c2=O)c(O)sc2ccccc12	-0.509%
Cn1nnc2cc(C(=O)N3CCN(c4ccccc4)CC3)ccc21	-3.95%
COc1ccccc1CNC(=O)CC(C)c1ccccc1 (stereo not shown)	4.63%
O=C(NNC(=O)C1CC=CCC1C(=O)O)c1cccs1 (stereo not shown)	16.2%
Cc1ccc(NC(=O)COC(=O)c2ccc([N+](=O)[O-])o2)cc1S(=O)(=O)N1CCCCC1	-13.3%
C=CCOc1ccccc1CN1CCC(n2nccc2NC(=O)c2ccccc2)CC1	-64.4%
CCCCn1c(=O)c2c(O)cc(=O)oc2c2ccccc21	-13.6%
CC1Sc2ccc(S(=O)(=O)N3CCC(C(=O)N(C)Cc4ccco4)CC3)cc2NC1=O (stereo not shown)	-24.7%
O=C(NCC1CCCO1)/C(=C\c1ccco1)NC(=O)c1ccc(Cl)cc1 (stereo not shown)	-23.5%
CCCN1CCOC(CC(=O)Nc2ccc([N+](=O)[O-])cc2)C1=O (stereo not shown)	-8.4%
COc1ccc(OC)c(-c2nnc(SCC(=O)NC3CCCCC3)o2)c1	-59.8%
Oc1c(Br)cc(Br)cc1CN1CCN(Cc2ccccc2)CC1	-3.14%
CC(=O)Nc1ccc(NC(=O)CCc2nc3ccccc3c(=O)[nH]2)cc1	14.2%
O=C(N/N=C/c1ccc(O)cc1)c1cccc(C(F)(F)F)c1	-2.89%
CCCOc1ccc(C(C)=O)cc1Cc1c(O)nc(SC)[nH]c1=O	14.7%
O=C(CSc1nnnn1-c1ccccc1)CC(=O)Nc1ccc(Cl)cc1	-8.59%
CC(=O)c1cc(-c2ccccc2)n(CCC(=O)NC2CCCCCCC2)c1C	-20.9%

Structure (SMILES)	hERG current change (%, negative = inhibition) at 10uM
COc1ccccc1C(=O)OCc1ccc2sc(C)nc2c1	-6.03%
O=C(NCCN1CCOCC1)c1ccc(NS(=O)(=O)c2ccccc2)cc1	12.4%
Cc1sc(NC(=O)COc2ccccc2)c(C#N)c1C	8.48%
O=C(c1cc(COc2ccc(F)cc2Cl)on1)N1CC2C[C@@H]3CC1C[C@H](C2)C3	15.7%
CCc1ccc(CN2CCC(n3nccc3NC(=O)c3ccccc3C)CC2)cc1	-76.2%
O=C(OCc1nnc(-c2ccccc2)o1)c1ccccc1	21.7%
CCCCN(CC)CCNC(=O)CN1C(=O)COc2ccc(S(=O)(=O)N3CCCC3)cc21	-3.34%
O=C(CC1Oc2ccccc2NC1=O)NCCCN1CCCC1=O (stereo not shown)	-14%
Cc1onc(-c2ccccc2Cl)c1C(=O)N1CCN(c2nc3ccccc3s2)CC1	-20.6%
CC(=O)N1CCCc2ccc(NS(=O)(=O)c3ccc(C)c(C)c3)cc21	0.654%
COc1ccc(-n2c(=O)c3c4c(sc3n(CC(=O)NC3CCCC3)c2=O)CCCC4)c(OC)c1	-11.1%
CCOC(=O)COc1cccc2c(=O)n(CC(N)=O)ccc12	6.7%
Cc1cc(=O)oc2ccc(OCC(=O)O)cc12	16.1%
CCCCOc1ccccc1C(=O)NCC(=O)O.[Li+]	-0.727%
O=C(C1CCCO1)N1CCN(S(=O)(=O)c2ccc(F)cc2)CC1 (stereo not shown)	22.5%
O=C1/C(=C/c2c[nH]c3ccccc23)CCC/C1=C\c1c[nH]c2ccccc12	-10%
COc1ccc(Cl)c(S(=O)(=O)N2CCCC2)c1	-7.55%
CCOC(=O)C1=C(C)Nc2ncnn2C1/C=C/c1ccccc1 (stereo not shown)	-2.68%
